Test results: PubChem BioAssay AID743279 (National Center for Advancing Translational Sciences (NCATS), 2014)
Among all 360,000 compounds or so, about 17,000 (4.7%) were called active. This list was built around the results that the source calls inconclusive (neither active nor inactive); the mix of calls is not that of the screen. Cut-off read from the data, not from the text of the source: active = activity change below about -50%; inconclusive = mostly about -30% to -49%; inactive = weaker than that.

assay: qHTS for Inhibitors of Inflammasome Signaling: IL-1-beta AlphaLISA Primary Screen; conditions: THP-1 LPS/ATP IL-1B secretion, 16 h; at 57.5 µM, stronger effect = lower value
Procedure, shortened: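 THP-1 cells pretreated 1 hr with compounds (up to 57.5 uM final), then stimulated with LPS (250 ng/mL final) plus ATP (1.25 mM final); secreted IL-1B measured by AlphaLISA after 16 hr, decreased signal indicating inhibition.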
% is set by controls: 0 for no effect and ±100 for the full control effect.

Row | Compound | activity change
1 | Nc1nc2ccc(C(=O)N3CCCCC3)cc2s1 | inactive: 15.6%
2 | COCCNc1c(-c2ccc(OC)cc2)nc2ccc(Cl)cn12 | inconclusive: -38.8%
3 | CN(CC1CCCN(CCc2ccccc2F)C1)C(=O)c1cc2ccccc2o1 (stereo not drawn) | inconclusive: -31.4%
4 | CCCCNC(=O)O[C@@H]1C[C@@H]2CCN3C(=O)CCC[C@H]([C@H]1CC)[C@H]23 | inactive: 9.32%
5 | COc1ccc(Nc2nc(NN)nc(Nc3ccc(OC)cc3)n2)cc1 | inconclusive: -33.2%
6 | CC(C)c1ccc(C(C)NCCS(=O)(=O)c2ccc(Cl)cc2)cc1 (stereo not drawn) | active: -77.2%
7 | Cc1ccc2nc3c(c(Nc4cccc(O)c4)c2c1)CCC3 | inactive: 118%
8 | COc1ccc(S(=O)(=O)Nc2cccc(C(C)=O)c2)cc1Br | active: -70.8%
9 | COc1cc(OC)cc(-c2noc(-c3csc([C@H]4C[C@H](O)[C@@H](CO)O4)n3)n2)c1 | inconclusive: -34.7%
10 | COc1cc2c(cc1OC)/C(=C/C(=O)c1ccc(NC(C)=O)cc1)NCC2 | inconclusive: -30.2%
11 | O=[N+]([O-])c1ccccc1CN1CCN(Cc2c[nH]c3ccccc23)CC1 | inconclusive: -38.6%
12 | C=C(C)COc1ccc(-c2ncncc2-c2ccc(OC)cc2)c(O)c1 | active: -58.4%
13 | CCN(CC)C(=O)[C@H]1CC(CC(=O)NCc2cccc(C(F)(F)F)c2)C(=O)N2CCc3c([nH]c4ccccc34)[C@]12C (stereo partly drawn) | inconclusive: -49.3%
14 | CC1(C(=O)Nc2ccc(F)c(Cl)c2)Cc2c(-c3ccc(C(N)=O)cc3)ccnc2O1 (stereo not drawn) | active: -79.2%
15 | CC(=O)N(CC(C)C(=O)O)c1c(I)cc(I)c(N)c1I (stereo not drawn) | inconclusive: -49.2%
16 | Cn1cnnc1SCC(=O)c1c[nH]c2ccccc12 | inactive: 22.4%
17 | COc1ccc(NC(=S)N(CCc2c(C)[nH]c3ccccc23)Cc2ccco2)cc1 | inconclusive: -32%
18 | ON=C1c2ccccc2-c2ccc(O)cc21 | inconclusive: -31.3%
19 | Cc1oc2c(C)c3oc(=O)c(CCC(=O)NCCCN4CCCC4=O)c(C)c3cc2c1C | inconclusive: -40.9%
20 | Cc1cccc(C(=O)CC(=O)c2cc(Cl)ccc2O)c1 | inactive: 74.9%
21 | Cc1ccccc1CN(CC(=O)Nc1cccc([N+](=O)[O-])c1)S(=O)(=O)c1ccc(Cl)cc1 | inconclusive: -32.3%

Row | Compound | activity change
22 | CCOc1ccc(C(C)NC(=O)c2ccc3c(c2)NC(=O)C(C)S3)cc1OCC (stereo not drawn) | inconclusive: -37.7%
23 | O=C(Nc1nc2ccc(Cl)cc2s1)c1ccc(N2CCCCC2)c([N+](=O)[O-])c1 | inconclusive: -32.5%
24 | Cc1nc(NCC2CCCO2)c2nnn(Cc3ccccc3Cl)c2n1 (stereo not drawn) | inconclusive: -31.5%
25 | CN(C)/C(=N\S(=O)(=O)c1ccccc1)c1ccc(Cl)cc1 | inconclusive: -43.8%
26 | Cc1ccc2sc(N(CCN(C)C)C(=O)c3ccc(S(=O)(=O)N4CC(C)OC(C)C4)cc3)nc2c1C (stereo not drawn) | active: -64.5%
27 | CCOc1ccc(N(Cc2cc3ccc(C)cc3[nH]c2=O)S(=O)(=O)c2ccccc2)cc1 | inconclusive: -36.4%
28 | C=CCOC(=O)c1[nH]c2c(c1C)C(=O)CC(c1cc(OC)c(OC)c(OC)c1)C2 (stereo not drawn) | inconclusive: -30%
29 | CCn1c(=O)n(CC)c2cc(N3CCCC3)c(NC(=O)c3ccccc3F)cc21 | inconclusive: -34%
30 | O=C(Nc1ccccc1)/C(=C/c1ccccc1)NC(=O)c1ccco1 | inconclusive: -44.4%
31 | CCN(CC)C(=O)[C@H]1C[C@H](CC(=O)NCc2cccc(C(F)(F)F)c2)C(=O)N2CCc3c([nH]c4cc(-c5ccco5)ccc34)[C@]12C | active: -58%
32 | C/C(=N\NC(=O)c1cc2c(s1)CCC(C)C2)c1ccc[nH]1 (stereo not drawn) | inactive: -18.1%
33 | CCCCCCNc1nc(NCc2ccco2)nc(OCC)n1 | inactive: -2.44%
34 | C[n+]1ccc(/C=N/Nc2nc(Cl)c(C#N)c(Cl)c2Cl)cc1 | active: -58.7%
35 | COc1ccc(-c2nnc(N(C)C(=O)c3cccnc3)s2)cc1 | inconclusive: -39.5%
36 | C/C(=N\Nc1ccc([N+](=O)[O-])cc1)c1ccco1 | inconclusive: -35.1%
37 | Clc1ccccc1OCCN1CCC(Cc2ccccc2)CC1 | inconclusive: -44.4%
38 | O=C(C=P(c1ccccc1)(c1ccccc1)c1ccccc1)c1ccccc1-c1ccccc1C(=O)C=P(c1ccccc1)(c1ccccc1)c1ccccc1 | inconclusive: -46.4%
39 | Cc1cccnc1C(NC(=O)C1CCN(CCOc2ccc(Cl)cc2Cl)CC1)c1ccc(Cl)cc1 (stereo not drawn) | inconclusive: -35.7%
40 | CC(C)C(=O)NCCc1nc2ccccc2n1CCCOc1ccc(Cl)cc1 | inconclusive: -30.2%
41 | O[C@H]1C[C@H](c2ccccc2)N(Cc2cccs2)C[C@@H]1n1cc(C2CC2)nn1 | inactive: -10.1%
42 | COc1cc(C(=O)N2CCCCC2)ccc1OCC(=O)Nc1ccc(F)cc1 | inactive: 31.1%

Row | Compound | activity change
43 | CCOc1ccc(NC(=O)c2ccc(CNc3c(N4CCCC4)c(=O)c3=O)cc2)cc1 | inconclusive: -35.7%
44 | CCCCCCCC/C=C\CCCCCCCC(=O)NCCc1ccc(O)c(O)c1 | inconclusive: -47.5%
45 | O=C(CSc1ncn[nH]1)Nc1ccc(OCc2ccccc2)cc1 | inactive: 7.86%
46 | CN(C)c1ccc(C(=O)Nc2ccc(CN3CCS(=O)(=O)CC3)cc2)cc1 | inconclusive: -45.6%
47 | Fc1ccccc1Nc1ncnc2c1nnn2Cc1ccccc1 | inconclusive: -36.2%
48 | Cc1cc(C)nc(SCC(=O)N/N=C/c2cc(C)n(-c3ccccc3C)c2C)n1 | inconclusive: -35.9%
49 | COc1cccc(C(=O)CN2C(=O)C(C)(C)Oc3ccc(C(=O)N4CCCCCC4)cc32)c1 | inconclusive: -37.6%
50 | COc1ccc(NC2=NC3(CCCCC3)N=C(N)N2)cc1 | active: -85.5%
51 | O=C(Nc1ccc([N+](=O)[O-])cc1)/C(=C/c1cccc([N+](=O)[O-])c1)NC(=O)C1CCCCC1 | inconclusive: -32.7%
52 | CC(=O)c1cccc(OCC(O)CNCCc2ccc(Cl)cc2)c1 (stereo not drawn) | inconclusive: -43.1%
53 | COc1ccc2[nH]c3c(N4CCN(Cc5ccc6c(c5)OCO6)CC4)ncnc3c2c1 | inconclusive: -36.2%
54 | Cc1ccc(/C=C/C(=O)Nc2ccccc2C(N)=O)cc1 | inconclusive: -32%
55 | Clc1ccc(-c2csc(Nc3cccnc3)n2)cc1 | active: -79.6%
56 | CC(=O)c1ccc(OCC(=O)Nc2ccc3c(c2)OCO3)cc1 | inconclusive: -31.5%
57 | COc1ccc(N(C(=O)CCl)C(C(=O)NCCc2ccccc2)c2cccs2)cc1Cl (stereo not drawn) | active: -103%
58 | COc1ccc(NC(=O)N(C)[C@H]2C[C@H]3c4[nH]c5ccc(-c6cccc(C)c6)cc5c4CCN3C[C@H]2[C@H](C)O)cc1 | inactive: -29.2%
59 | COc1cc(-c2nc(-c3ccc4c(c3)-c3ccccc3S4(=O)=O)c(-c3ccccc3)[nH]2)cc(OC)c1O | inconclusive: -49.1%
60 | O=C1OCCN1C(=O)[C@H]1[C@H](c2ccc([N+](=O)[O-])cc2)C(c2ccc(F)cc2)=NN1c1ccc(Br)cc1 | inconclusive: -32.6%
61 | O=C(NCCN1CCN(c2ccccc2)CC1)Nc1cccc(Br)c1 | inconclusive: -36.8%
62 | CCCCN(CC)Cc1c(C)[nH]c2ccccc2c1=O | inactive: -1.67%
63 | CCCCNC(=O)C[C@@H]1C[C@@]2(C(=O)OC)CC(C)(C)CC=C2N(Cc2ccccc2)C1=O | inactive: -27.8%

Row | Compound | activity change
64 | Cc1nc(NC(=O)CN2CCC(O)(c3ccc(F)cc3)CC2)sc1C | inconclusive: -35.8%
65 | CCOc1ccccc1N(C(=O)c1snc(C(N)=O)c1N)C(C(=O)NC1CCCC1)c1cccs1 (stereo not drawn) | inconclusive: -33.4%
66 | Cc1cccc(C)c1NC(=O)C(=O)NCCCN1CCOCC1 | inconclusive: -37.5%
67 | Cc1ccc(NC(=O)CSCC#N)cc1Cl | inconclusive: -32.7%
68 | COC(=O)[C@]1(Cc2ccccc2)N[C@H](c2ccc(-c3cccc(Cl)c3)cc2)[C@@H]2C(=O)N(C)C(=O)[C@@H]21 | inconclusive: -45.4%
69 | O=C(Nc1ccccc1)C1=C[C@H](c2ccc(C(F)(F)F)cc2)C[C@H](OCc2ccc(CO)cc2)O1 | inconclusive: -33.5%
70 | S=C(Nc1ccc(Cl)c(Cl)c1)NC1CCCCC1 | active: -95.3%
71 | COc1cccc(NC(=O)c2ccc(S(=O)(=O)N3CCCC3)cc2)c1 | inconclusive: -32.2%
72 | CCC/C(C#Cc1ccsc1)=C1/c2ccccc2C(=O)N1c1ccccc1 | active: -89.3%
73 | CCCC(=O)N1CCN(c2nc3c(OC)ccc(Cl)c3s2)CC1 | inconclusive: -38.9%
74 | CCN(CC)CC#CCC(O)(c1ccccc1)c1ccccc1 | inconclusive: -41.9%
75 | O=C(Cc1ccccc1F)NC1CCCN(Cc2ccc(Cl)cc2)C1 (stereo not drawn) | inconclusive: -35.3%
76 | Clc1ccc(CNCCCSc2ncccn2)cc1Cl | active: -62%
77 | Cc1ccccc1NC(=O)c1cccc(OCc2c(C)noc2C)c1 | inconclusive: -40.6%
78 | CCCC(c1nnnn1C1CCCCC1)N1CCN(c2ncccn2)CC1 (stereo not drawn) | inconclusive: -30.2%
79 | COC(=O)/C(=C(O)\C=C\c1ccccc1[N+](=O)[O-])c1nc2ccccc2[nH]1 | inconclusive: -35.5%
80 | COc1ccc(/C=N/NC(=O)c2cc(-c3ccc4c(c3)OCO4)n[nH]2)cc1OC | inconclusive: -39%
81 | O=C(N/C(=C/c1ccc([N+](=O)[O-])cc1)C(=O)N1CCCC1)c1ccccc1 | inactive: 26.5%
82 | Cc1ccc(C(=O)Nc2ncc([N+](=O)[O-])s2)cc1 | active: -66.9%
83 | CCCCCOP(=O)(OCCCCC)C1(NS(=O)(=O)c2ccccc2)C=CC(=O)c2ccccc21 (stereo not drawn) | inconclusive: -34.5%
